This is one part of the list. Further columns of the screen follow, without active or inactive calls. Compounds called inactive in the main read-out are mostly missing here. The note in brackets gives the kind of curve behind each potency; many fits are weak.
Tags give direction and shape of the fitted curve.

A short description of the first assay: qHTS Assay for Lipid Storage Modulators (AID 1519). Conditions: Drosophila S3 cells, BODIPY lipid droplet/cell ratio, laser cytometry; measured here: cell count channel max response; cells loaded with oleic acid. The method in brief: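 Cells seeded at 5,000 per well were treated with compounds over a concentration series and loaded with oleic acid (400 uM, as added). Lipid droplet fluorescence (488 nm excitation, 500-530 nm channel) was read by laser-scanning cytometry and normalized to 20 uM Triacsin C.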
(In qHTS, concentration-response curves come from the screen itself.)
`O=C(c1ccco1)N1CCC[C@@]2(CCN(c3cccc(-c4ccccc4)c3)C2)C1`: the max response is 0.503%.

In the case of `Cn1c(=O)cnc2cnc(Nc3ccccc3)nc21`, the max response is 3.51%.

Take `O=C(O)C(S)[C@@H](S)C(=O)O` (stereo not given in full): the max response was 18.5%.

Consider `COc1cccc(OC)c1C(=O)NC1C(=O)N2C1SC(C)(C)C2C(=O)O` (stereo not given), for which the max response amounted to 16.7%.

For `COc1ccc2c(c1)OCC(Cc1ccc(OC)c(OC)c1)C2=O` (stereo not given), the max response is -18.1%.

Consider `COC(=O)N1CCC2(CCN(C(=O)Nc3cccc(F)c3)CC2)CC1`, for which the max response worked out at 20.4%.

Take `COc1cccc(Nc2ncc3nc(-c4ccc(F)cc4)c(=O)n(C[C@H]4CCCO4)c3n2)c1`: the max response is -10.2%.

For the compound `COc1ccc(NC(=O)N2CC3(CCN(C(=O)c4ccncc4)CC3)C2)cc1`, the max response was 18.2%.

In the case of `CN1CCN(c2ncc3ncc(=O)n(CCc4ccccc4)c3n2)CC1`, the max response worked out at 23.9%.

As to `CCNc1ncc2nc(-c3ccc(Cl)cc3)c(=O)n(Cc3ccc(F)cc3)c2n1`, the max response worked out at 17.7%.

For `Nc1nc(=O)n(C2OC(CO)C(O)C2O)cc1Cl` (stereo not given), the max response stood at 5.39%.

As for `CCOC(=O)NNc1nncc2ccccc12`, the max response turned out to be 23.3%.

With `C[C@@](Cc1ccc(O)c(O)c1)(NN)C(=O)O`, the max response turned out to be 28.6%.

Take `CC1(C)CC[C@]2(C(=O)O)CC[C@@]3(C)C(=CCC4[C@@]5(C)CCC(O)C(C)(C)C5CC[C@@]43C)C2C1` (stereo not given in full): the max response is 22.9%.

In the case of `CS(=O)(=O)N1CCC2(CC1)CN(c1ccc(-c3ccccc3)cc1)C2`, the max response was determined as 5.05%.

For `CN1CCN(c2ncc3nc(-c4cn(C)c5ccccc45)c(=O)n(Cc4cccs4)c3n2)CC1`, the max response is -49.2%.

Turning to `O=S(=O)(c1ccccc1)N1CCC2(CC1)CN(Cc1ccccc1)C2`, the max response worked out at 27.8%.

As for `CN1CCN(c2ncc3nc(CCc4ccccc4)c(=O)n(CCC#N)c3n2)CC1`, the max response was determined as 9.78%.

On to `O=S(=O)(c1ccccc1)N1CCC2(CC1)CN(Cc1nccs1)C2`, for which the max response stood at 22.9%.

Regarding `O=C(Nc1cccc(F)c1)N1CCCC2(CCNCC2)C1`, the max response came out at 27.6%.

Take `CC(=O)N1CCC2(CCN(Cc3ccc(C#N)cc3)CC2)CC1`: the max response was 4.89%.

As to `COc1ccccc1OCC(O)COC(N)=O` (stereo not given), the max response was 17.2%.

Regarding `CCNc1ncc2nc(-c3cccc(C#N)c3)c(=O)n(C)c2n1`, the max response was -4.83%.

Regarding `O=C(Nc1cccc(F)c1)N1CCCC2(CCN(C(=O)c3csnn3)CC2)C1`, the max response came out at 18.6%.

In the case of `N#CCCn1c(=O)c(-c2ccc(F)cc2)nc2cnc(N3CCNCC3)nc21`, the max response is 25.3%.

`N#Cc1cccc(-c2nc3cnc(Nc4ccccc4)nc3n(C[C@H]3CCCO3)c2=O)c1`: the max response came out at 11.7%.

For the compound `COc1ccc2[nH]cc(CCNc3ccnc(-c4ccc5c(c4)OCO5)n3)c2c1`, the max response stood at 20.4%.

Consider `CN(C)c1ncc2ncc(=O)n(CCc3ccccc3)c2n1`, for which the max response stood at 2.98%.

For `COc1ccc(-n2c(=O)c(C)nc3cnc(N4CCNCC4)nc32)cc1`, the max response amounted to 25.1%.

Turning to `CNc1cc(-c2ccccc2C)ncn1`, the max response is 27%.

In the case of `Cn1cccc1C(=O)N1CCC2(CCCN(Cc3nccs3)C2)CC1`, the max response came to 23.9%.

In the case of `CCNc1ncc2nc(-c3ccc(F)cc3)c(=O)n(CCc3ccccc3)c2n1`, the max response was 33%.

As to `CS(=O)(=O)Nc1cccc(-c2cncnc2NCc2ccccc2)c1`, the max response was 32.2%.

Turning to `Cc1noc(C)c1C(=O)N1CCC2(CCN(Cc3nccs3)CC2)CC1`, the max response was 23.7%.

Consider `Cc1nc2cnc(N3CCOCC3)nc2n(Cc2cccs2)c1=O`, for which the max response worked out at 30%.

Consider `N#CCCn1c(=O)c(-c2ccccc2)nc2cnc(N3CCNCC3)nc21`, for which the max response is 15.6%.

For `CC(=O)OCC(=O)[C@@]1(O)CCC2C3CCC4=CC(=O)C=CC4(C)C3C(O)C[C@]21C` (stereo not given in full), the max response was 14%.

`COc1ccc(-n2c(=O)c(-c3ccc(Cl)cc3)nc3cnc(N(C)C)nc32)cc1`: the max response was found to be 27.3%.

Consider `COc1cccc(Cn2c(=O)cnc3cnc(OCc4ccccc4)nc32)c1`, for which the max response was 22.9%.

With `Cn1cc(-c2nc3cnc(N4CCNCC4)nc3n(CCc3ccccc3)c2=O)c2ccccc21`, the max response was -55.7%.

Staying with this assay, now noted: Drosophila S3 cells, BODIPY lipid droplet/cell ratio, laser cytometry; measured here: cell number channel AC50; cells loaded with oleic acid.
Broadly, the AC50 is the midpoint of the concentration-response curve, whichever way the signal moves. With `CN1CCN(c2ncc3nc(-c4cn(C)c5ccccc45)c(=O)n(Cc4cccs4)c3n2)CC1`, the AC50 was 12600 nM [falling, partial curve].

On to `CC(=O)N1CCC2(CCN(Cc3ccc(C#N)cc3)CC2)CC1`, for which the AC50 is 3160 nM [rising, partial curve, poor fit].

With `N#Cc1cccc(-c2nc3cnc(Nc4ccccc4)nc3n(C[C@H]3CCCO3)c2=O)c1`, the AC50 was 5.01 nM [rising, full curve, poor fit].

As to `Cn1cccc1C(=O)N1CCC2(CCCN(Cc3nccs3)C2)CC1`, the AC50 was 2820 nM [rising, partial curve, poor fit].

With `CCNc1ncc2nc(-c3ccc(F)cc3)c(=O)n(CCc3ccccc3)c2n1`, the AC50 was 355 nM [rising, full curve].

On to `CS(=O)(=O)Nc1cccc(-c2cncnc2NCc2ccccc2)c1`, for which the AC50 was 25100 nM [rising, single point].

In the case of `Cn1cc(-c2nc3cnc(N4CCNCC4)nc3n(CCc3ccccc3)c2=O)c2ccccc21`, the AC50 is 39800 nM [falling, single point].

The same assay, now with this note: Drosophila S3 cells, BODIPY lipid droplet/cell ratio, laser cytometry; measured here: lipid (BODIPY) channel AC50; cells loaded with oleic acid.
Regarding `O=C(c1ccco1)N1CCC[C@@]2(CCN(c3cccc(-c4ccccc4)c3)C2)C1`, the AC50 was 28.2 nM [rising, full curve, poor fit].

For `Cn1c(=O)cnc2cnc(Nc3ccccc3)nc21`, the AC50 is 63.1 nM [rising, full curve, poor fit].

Turning to `O=C(O)C(S)[C@@H](S)C(=O)O` (stereo not given in full), the AC50 is 25100 nM [rising, single point].

For the compound `COc1cccc(OC)c1C(=O)NC1C(=O)N2C1SC(C)(C)C2C(=O)O` (stereo not given), the AC50 was 39800 nM [rising, single point].

As for `COc1ccc2c(c1)OCC(Cc1ccc(OC)c(OC)c1)C2=O` (stereo not given), the AC50 was 25100 nM [falling, partial curve].

In the case of `COC(=O)N1CCC2(CCN(C(=O)Nc3cccc(F)c3)CC2)CC1`, the AC50 is 10 nM [rising, full curve, poor fit].

In the case of `COc1cccc(Nc2ncc3nc(-c4ccc(F)cc4)c(=O)n(C[C@H]4CCCO4)c3n2)c1`, the AC50 is 15800 nM [falling, single point].

Regarding `COc1ccc(NC(=O)N2CC3(CCN(C(=O)c4ccncc4)CC3)C2)cc1`, the AC50 was 2510 nM [rising, full curve, poor fit].

`CN1CCN(c2ncc3ncc(=O)n(CCc4ccccc4)c3n2)CC1`: the AC50 is 158 nM [rising, full curve].

For the compound `CCNc1ncc2nc(-c3ccc(Cl)cc3)c(=O)n(Cc3ccc(F)cc3)c2n1`, the concentration at half-maximal activity (AC50) is 56.2 nM [rising, full curve, poor fit].

Regarding `Nc1nc(=O)n(C2OC(CO)C(O)C2O)cc1Cl` (stereo not given), the AC50 was 12600 nM [rising, partial curve].

Take `CCOC(=O)NNc1nncc2ccccc12`: the concentration at half-maximal activity (AC50) is 20000 nM [rising, partial curve].

Turning to `C[C@@](Cc1ccc(O)c(O)c1)(NN)C(=O)O`, the AC50 is 22400 nM [rising, partial curve, poor fit].

On to `CC1(C)CC[C@]2(C(=O)O)CC[C@@]3(C)C(=CCC4[C@@]5(C)CCC(O)C(C)(C)C5CC[C@@]43C)C2C1` (stereo not given in full), for which the AC50 was 39800 nM [rising, single point].

Regarding `CS(=O)(=O)N1CCC2(CC1)CN(c1ccc(-c3ccccc3)cc1)C2`, the AC50 was 4470 nM [rising, partial curve].

As for `O=S(=O)(c1ccccc1)N1CCC2(CC1)CN(Cc1ccccc1)C2`, the AC50 is 355 nM [rising, full curve, poor fit].

`CN1CCN(c2ncc3nc(CCc4ccccc4)c(=O)n(CCC#N)c3n2)CC1`: the half-maximal activity concentration (AC50) is 63.1 nM [rising, full curve, poor fit].

Regarding `O=S(=O)(c1ccccc1)N1CCC2(CC1)CN(Cc1nccs1)C2`, the half-maximal activity concentration (AC50) was 501 nM [rising, partial curve, poor fit].

Regarding `O=C(Nc1cccc(F)c1)N1CCCC2(CCNCC2)C1`, the AC50 was 6310 nM [rising, full curve, poor fit].

In the case of `COc1ccccc1OCC(O)COC(N)=O` (stereo not given), the AC50 was 39800 nM [rising, single point].

Turning to `CCNc1ncc2nc(-c3cccc(C#N)c3)c(=O)n(C)c2n1`, the AC50 is 56.2 nM [rising, full curve, poor fit].

For the compound `O=C(Nc1cccc(F)c1)N1CCCC2(CCN(C(=O)c3csnn3)CC2)C1`, the AC50 was 28.2 nM [rising, full curve, poor fit].

With `N#CCCn1c(=O)c(-c2ccc(F)cc2)nc2cnc(N3CCNCC3)nc21`, the AC50 was 25100 nM [rising, single point].

As for `COc1ccc2[nH]cc(CCNc3ccnc(-c4ccc5c(c4)OCO5)n3)c2c1`, the AC50 is 25.1 nM [rising, full curve, poor fit].

Consider `CN(C)c1ncc2ncc(=O)n(CCc3ccccc3)c2n1`, for which the AC50 is 447 nM [rising, full curve].

As to `COc1ccc(-n2c(=O)c(C)nc3cnc(N4CCNCC4)nc32)cc1`, the half-maximal activity concentration (AC50) was 70.8 nM [rising, full curve, poor fit].

On to `CNc1cc(-c2ccccc2C)ncn1`, for which the concentration at half-maximal activity (AC50) is 141 nM [rising, full curve, poor fit].

Turning to `Cc1noc(C)c1C(=O)N1CCC2(CCN(Cc3nccs3)CC2)CC1`, the AC50 is 2000 nM [rising, partial curve, poor fit].

In the case of `Cc1nc2cnc(N3CCOCC3)nc2n(Cc2cccs2)c1=O`, the AC50 was 28.2 nM [rising, full curve, poor fit].

Turning to `N#CCCn1c(=O)c(-c2ccccc2)nc2cnc(N3CCNCC3)nc21`, the AC50 was 39.8 nM [rising, full curve, poor fit].

Turning to `CC(=O)OCC(=O)[C@@]1(O)CCC2C3CCC4=CC(=O)C=CC4(C)C3C(O)C[C@]21C` (stereo not given in full), the AC50 is 28200 nM [rising, single point].

Regarding `COc1ccc(-n2c(=O)c(-c3ccc(Cl)cc3)nc3cnc(N(C)C)nc32)cc1`, the concentration at half-maximal activity (AC50) was 100 nM [rising, full curve, poor fit].

On to `COc1cccc(Cn2c(=O)cnc3cnc(OCc4ccccc4)nc32)c1`, for which the AC50 is 1000 nM [rising, full curve, poor fit].
